About 540 (0.36%) of roughly 150,000 compounds showed an effect of 50% or more. This is one part of the list.
Test system: Plasmodium falciparum
Test: Primary screen in NF54 nanoGlo assay, in single point, at 2uM, 72h; a lower Z score goes with more inhibition
Format: functional, Erythrocyte
Settings: timepoint 72 hour

Row | SMILES | % Inhibition | Z score
1 | Cc1ccc(-c2noc(CN3N=NC4C(=O)N(c5ccc6c(c5)CCC6)C(=O)C43)n2)cc1 (stereo unspecified) | 0% | 0.01
2 | CS(=O)(=O)N1CC[C@H](CNC(=O)NC(C2CCC2)C2CCC2)C1 | 1% | -0.21
3 | CN(C)S(=O)(=O)c1ccc(N2CCC(c3ccnn3C)CC2)c(S(N)(=O)=O)c1 | -4% | 0.57
4 | CCCCN1CCN(c2nc(-c3ccncc3)nc3c2c(C)nn3C)CC1=O | -11% | 2.22
5 | C=C(C)COc1ccc(C(=O)NC[C@H](C)n2cncn2)cc1 | -8% | 1.02
6 | CCN(Cc1nnc(-c2ccccc2)o1)S(=O)(=O)c1cnn(C(F)F)c1 | 5% | -0.59
7 | C[C@H]1CCCN(c2ccc(Cl)cc2NC(=O)CCc2ccnn2C)C1 | -8% | 1.55
8 | COc1ccc(-c2nc(N)c(C#N)c(-c3c[nH]c(C)n3)c2C)cc1 | 9% | -1.32
9 | CCc1nnc([C@H](C)Nc2ccc(OCc3ccco3)c(Cl)c2)o1 | -12% | 1.24
10 | CCc1noc(CCNC(=O)CCc2csc(N)n2)n1 | 0% | 0.03
11 | Cn1nncc1NC(=O)NCCc1cccc2c1OCCO2 | -6% | 0.9
12 | Cn1ccc(NC(=O)NC[C@H]2CCCCN2C2CC2)n1 | -8% | 1.42
13 | CC1(C)CCc2nnc(CNC(=O)c3ccco3)n2C1 | 4% | -0.72
14 | C=CCn1cc(CN[C@H](C(N)=O)C(C)C)c(C)n1 | -1% | 0.17
15 | CC(=O)c1cccc(NC(=O)CC2CC3CCC2C3)c1 (stereo unspecified) | -12% | 1.65
16 | Cn1cc(CN(CCn2cc(Cl)cn2)C2CC2)cn1 | -3% | 0.59
17 | Cn1nnc2cc(-c3noc(-c4cccc(NC(=O)c5ccco5)c4)n3)ccc21 | 26% | -2.39
18 | O=C(Cc1ccccc1F)N1CC2(C[C@H](N3CCCC3)CO2)C1 | -7% | 0.84
19 | Cc1nn(CN(CCC#N)Cc2ccccn2)c(C)c1Br | 4% | -0.58
20 | COC(=O)c1cc2n(n1)C[C@@](C)(C(=O)NC1CCC(C)CC1)N(Cc1ccccc1C)C2=O (stereo partly specified) | 8% | -0.92
21 | Fc1cc(Cl)cc(-n2cc([C@H]3CCOC3)nn2)c1 | -6% | 0.59
22 | Fc1cnc(OC2Cc3ccccc3C2)nc1 | 60% | -5.26

Row | SMILES | % Inhibition | Z score
23 | Cc1n[nH]c([C@@H]2CN(C(=O)c3cscn3)CCCN2Cc2ccccc2)n1 | -9% | 1.67
24 | CC(=O)c1ccc(-c2ccc(C(=O)N(C)c3cccc(CO)c3)o2)cc1 | -17% | 2.29
25 | Cc1n[nH]c(C(=O)NCCN2CCCC2=O)c1Cl | -13% | 1.63
26 | CC(=O)Nc1ccc(S(=O)(=O)N[C@H]2C[C@@H](c3nc(C)no3)N(C)C2)cc1 | 13% | -1.47
27 | Cc1cccc(C)c1NC(=O)C1=NCCCN1 | 5% | -0.53
28 | CC[C@H]1COCCN1C(=O)c1ccn2nnnc2c1 | -14% | 1.81
29 | Cc1nc(C(C)C)ncc1C(=O)N1CCNC[C@H]1C(=O)N1CCOCC1 | 2% | -0.17
30 | CN1CCC[C@@H]1CNC(=O)Nc1ccccc1C(F)(F)F | 0% | 0.05
31 | CNC(=O)N1CCC[C@H](Oc2nc(C3CC3)nc3c2CCOCC3)C1 | -13% | 1.28
32 | Cc1ncc(CC(=O)N2CCC[C@H](c3nc4c(C)cccc4[nH]3)C2)c(=O)[nH]1 | -6% | 0.82
33 | COc1cccc(NS(=O)(=O)c2cc(-c3[nH]ncc3C(=O)N(C)C)oc2C)c1 | 5% | -0.56
34 | CCOC(=O)c1cnc2nccc(C)c2c1O | -34% | 3.99
35 | O=C(Nc1cccc(COC2CCCCC2)c1)[C@H]1CCc2nccn2C1 | -1% | 0.11
36 | CN(C)C[C@H]1CN(CCc2ccccn2)CCO1 | -9% | 0.94
37 | Cc1cc2cc(CNC3(CO)CCOCC3)oc2cc1C | -5% | 0.9
38 | CC[C@H](C)CN1CCC(O)(c2ncnn2C)CC1 | -11% | 1.1
39 | COc1cccc(CC(=O)Nc2cc(S(=O)(=O)N3CCOCC3)ccc2N2CCOCC2)c1 | -3% | 0.46
40 | Cn1cnc2c1CCN(c1nnc(-c3ccccc3)s1)C2 | 14% | -2.64
41 | Cc1ccccc1S(=O)(=O)N1CCC(N2CC(F)(F)C[C@H]2CN(C)C)CC1 | -4% | 0.68
42 | CCOc1nnc(CN(CCC(N)=O)c2ccc(F)cc2)s1 | -8% | 0.83
43 | CN1CCCC[C@@H]1CC(=O)N1CCN(c2ccc3nccn3n2)CC1 | -8% | 1.72

— ChEMBL document CHEMBL4888484, “Replenishing the malaria drug discovery pipeline: Screening and hit evaluation of the MMV Hit Generation Library 1 (HGL1) against asexual blood stage Plasmodium falciparum ,using a nano luciferase reporter read-out” (2022)
